The target in series [1] is T1, hOATP1B3 (Homo sapiens, UniProt Q9NPD5).
T1 sequence (Q9NPD5 1-702): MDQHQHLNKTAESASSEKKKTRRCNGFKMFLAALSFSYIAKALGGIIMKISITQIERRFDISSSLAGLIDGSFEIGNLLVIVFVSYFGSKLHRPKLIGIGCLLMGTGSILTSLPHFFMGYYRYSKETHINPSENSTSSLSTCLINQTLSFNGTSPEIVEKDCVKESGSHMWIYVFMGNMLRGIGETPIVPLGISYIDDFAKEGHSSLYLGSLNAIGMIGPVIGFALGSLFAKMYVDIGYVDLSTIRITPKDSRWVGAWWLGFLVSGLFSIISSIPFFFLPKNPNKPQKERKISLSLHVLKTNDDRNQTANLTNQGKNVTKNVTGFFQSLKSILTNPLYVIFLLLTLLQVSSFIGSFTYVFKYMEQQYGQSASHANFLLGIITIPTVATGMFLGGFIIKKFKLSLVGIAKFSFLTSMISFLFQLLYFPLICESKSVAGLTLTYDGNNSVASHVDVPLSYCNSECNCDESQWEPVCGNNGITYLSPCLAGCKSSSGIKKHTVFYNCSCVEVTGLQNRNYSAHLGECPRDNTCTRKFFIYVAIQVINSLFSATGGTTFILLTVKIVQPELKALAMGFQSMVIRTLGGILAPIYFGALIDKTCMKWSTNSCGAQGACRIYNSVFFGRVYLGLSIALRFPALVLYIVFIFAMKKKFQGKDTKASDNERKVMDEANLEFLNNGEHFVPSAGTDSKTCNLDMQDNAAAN
Also on record: expressed in transfected cells; host or cells: HEK-293, stably transfected. Particulars: CHO cells; ref Gui et al. (2008) [16]; read-out: Km, OATP1B3-mediated E1S; cited from earlier work.

The target of series [2] is T2, hOATP1B1 (Homo sapiens, UniProt Q9Y6L6).
T2 sequence (Q9Y6L6 1-691): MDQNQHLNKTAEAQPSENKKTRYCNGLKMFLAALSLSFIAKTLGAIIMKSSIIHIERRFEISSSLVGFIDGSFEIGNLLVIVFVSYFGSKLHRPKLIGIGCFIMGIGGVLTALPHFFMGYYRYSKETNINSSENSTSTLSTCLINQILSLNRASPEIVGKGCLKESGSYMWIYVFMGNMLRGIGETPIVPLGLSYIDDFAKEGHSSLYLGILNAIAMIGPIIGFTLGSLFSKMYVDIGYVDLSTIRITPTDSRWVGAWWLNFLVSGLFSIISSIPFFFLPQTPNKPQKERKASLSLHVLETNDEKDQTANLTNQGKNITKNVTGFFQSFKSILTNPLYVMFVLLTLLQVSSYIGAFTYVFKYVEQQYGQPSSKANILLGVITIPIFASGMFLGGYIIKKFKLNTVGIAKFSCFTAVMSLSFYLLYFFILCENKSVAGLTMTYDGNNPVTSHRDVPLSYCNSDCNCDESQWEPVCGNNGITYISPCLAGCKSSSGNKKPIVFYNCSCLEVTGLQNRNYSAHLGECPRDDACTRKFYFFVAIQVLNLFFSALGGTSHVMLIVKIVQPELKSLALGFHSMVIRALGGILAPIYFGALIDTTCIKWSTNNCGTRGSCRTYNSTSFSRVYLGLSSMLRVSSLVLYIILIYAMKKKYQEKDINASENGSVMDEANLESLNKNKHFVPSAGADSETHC
On the set-up: expressed in transfected cells; host or cells: HEK-293, stably transfected. Particulars: previous study; cited from earlier work.

Series [3] deals with T3, mOATP1B2 (Mus musculus, UniProt Q9JJL3).
T3 construct: The full-length mOATP1B2 and rOATP1B2 consist of 689 and 678 amino acids
T3 sequence (Q9JJL3 1-689): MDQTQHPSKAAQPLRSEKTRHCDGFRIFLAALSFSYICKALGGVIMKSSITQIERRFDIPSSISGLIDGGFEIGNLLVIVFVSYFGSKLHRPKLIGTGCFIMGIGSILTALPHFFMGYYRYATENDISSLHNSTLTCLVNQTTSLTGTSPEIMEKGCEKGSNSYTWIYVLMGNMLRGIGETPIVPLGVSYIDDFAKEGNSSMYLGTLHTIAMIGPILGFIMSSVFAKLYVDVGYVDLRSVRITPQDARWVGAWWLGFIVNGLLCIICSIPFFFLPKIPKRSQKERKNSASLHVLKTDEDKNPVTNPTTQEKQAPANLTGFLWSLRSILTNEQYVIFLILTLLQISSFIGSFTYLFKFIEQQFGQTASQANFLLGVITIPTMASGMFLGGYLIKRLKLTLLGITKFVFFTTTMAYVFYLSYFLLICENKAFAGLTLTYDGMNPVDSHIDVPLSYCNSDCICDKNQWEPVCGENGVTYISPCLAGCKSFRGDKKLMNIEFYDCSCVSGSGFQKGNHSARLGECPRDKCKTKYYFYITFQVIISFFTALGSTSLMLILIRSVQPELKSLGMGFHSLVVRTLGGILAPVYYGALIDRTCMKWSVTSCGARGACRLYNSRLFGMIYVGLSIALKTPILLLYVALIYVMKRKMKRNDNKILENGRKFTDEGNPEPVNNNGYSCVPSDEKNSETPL
Briefly: mOATP1B2-mediated uptake of [3H]-E1S and [3H]-TCA in overexpressing HEK293 cells. The series is classed as cell-based.

For series [4], the target named is T1, hOATP1B3. Briefly: hOATP1B3-mediated uptake of [3H]-E1S and [3H]-TCA in transfected HEK293 cells.
The target of series [5] is T2, hOATP1B1. Particulars: hOATP1B1, 0.01 µM substrate.
Series [6] addresses T4, rOATP1B2 (Rattus norvegicus, UniProt Q9QZX8).
T4 construct: The full-length mOATP1B2 and rOATP1B2 consist of 689 and 678 amino acids
T4 sequence (Q9QZX8 1-687): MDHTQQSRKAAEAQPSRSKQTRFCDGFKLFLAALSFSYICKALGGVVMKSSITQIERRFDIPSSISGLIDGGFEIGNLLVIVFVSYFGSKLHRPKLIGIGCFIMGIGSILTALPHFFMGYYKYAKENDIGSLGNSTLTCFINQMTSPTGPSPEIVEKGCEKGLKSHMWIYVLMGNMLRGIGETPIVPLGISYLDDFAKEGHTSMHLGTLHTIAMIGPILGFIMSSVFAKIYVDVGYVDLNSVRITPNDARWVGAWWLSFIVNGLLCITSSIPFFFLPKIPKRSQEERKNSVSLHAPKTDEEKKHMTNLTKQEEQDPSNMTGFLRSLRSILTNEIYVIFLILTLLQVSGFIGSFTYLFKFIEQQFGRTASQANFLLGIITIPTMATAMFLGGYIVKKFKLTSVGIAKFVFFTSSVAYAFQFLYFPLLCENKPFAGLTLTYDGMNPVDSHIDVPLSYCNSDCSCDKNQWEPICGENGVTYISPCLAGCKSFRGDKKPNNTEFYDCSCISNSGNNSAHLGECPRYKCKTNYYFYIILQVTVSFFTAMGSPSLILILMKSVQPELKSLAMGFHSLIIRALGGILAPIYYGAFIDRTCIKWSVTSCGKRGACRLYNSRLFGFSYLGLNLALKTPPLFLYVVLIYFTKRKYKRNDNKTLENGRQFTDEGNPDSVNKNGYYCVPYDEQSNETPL
Briefly: rOATP1B2-mediated uptake of [3H]-E1S and [3H]-TCA in overexpressing HEK293 cells. The series is classed as cell-based.

Turning to `C[C@]12CC[C@@H]3c4ccc(OS(=O)(=O)O)cc4CC[C@H]3[C@@H]1CCC2=O` [E1S, estrone-3-sulfate], the Km was 58 ± 20 µM in series [1]; 0.25 ± 0.04 µM in series [2]; 242 ± 23 µM in series [3] (mOATP1B2-HEK293, net uptake, 1 min, 37 °C, increasing unlabeled substrate with 10 nM 3H-substrate); 90 ± 11 µM in series [6] (rOATP1B2-HEK293, net uptake, 1 min, 37 °C, increasing unlabeled substrate with 10 nM 3H-substrate). Also, the “uptake ratio transporter-HEK cells versus vector-HEK cells” value in series [3] (mOATP1B2, 1 µM substrate, initial time 1 min) is reported as “more than 50 fold”; in series [6] (rOATP1B2, 1 µM substrate, initial time 1 min), “around 10 fold”. Moreover, the Vmax in series [3] (mOATP1B2-HEK293, net uptake, 1 min, 37 °C) is reported as 8881 ± 390 pmol/mg protein/min; in series [6] (rOATP1B2-HEK293, net uptake, 1 min, 37 °C) it was 859 ± 36 pmol/mg protein/min. In addition, the “uptake compared to vector-transfected control cells” value is “no significant uptake” in series [4] (hOATP1B3, 0.01 µM substrate); “no significant uptake” in series [4] (hOATP1B3, 1 µM substrate, E1S 5 min, TCA 10 min); 46 fold in series [5].

The values are drawn from publication PMC12846068, “Insights into Transport Function of the Murine Organic Anion-Transporting Polypeptide OATP1B2 by Comparison with Its Rat and Human Orthologues” (Toxics, 2025).
